Test results taken from PubChem BioAssay AID1919016 (Molecular Pharmacology Branch, DTP, NCI, 2023).
Certain results were filed several times, with different values. Only these are listed. There may be further records. The values listed for one entry are repeats across runs, samples, wells, individuals or studies. Brackets with × count equal records among those shown.

Test system: NCI-H196 complex spheroid growth, percent test/control
Assay: Anticancer human tumor NCI-H196 cell line growth inhibition [AhR];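 note: seven days of drug exposure starting three days after plating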
Details: stronger effect = lower value
Text: Multicellular complex tumor spheroid response to aryl hydrocarbon receptor antagonists in combination with a variety of drugs and investigational agents in selected tumor cell lines
The current study was undertaken to assess response to aryl hydrocarbon receptor antagonists in combination with standard-of-care drugs and investigational agents in solid tumor complex spheroid models. Complex spheroids include a stromal component modeled by human endothelial cells (HUVEC) and fibroblasts modeled by human mesenchymal stem cells (MSCs). The concentration ranges selected for each drug and investigational agent were based upon clinically achievable concentrations if the clinical Cmax of the agent was known.
Compounds. The drugs and investigational agents: BAY 2416964 (NSC825713), GNF351 (NSC835774), CH-223191 (NSC835775), CPI-455 (NSC825282), aza-TdCyd (NSC777586), decitabine (NSC127716), belinostat (NSC758774), entinostat (NSC756642), pevonedistat (NSC761192), tazemetostat (NSC777109), talazoparib (NSC765396), olaparib (NSC753686), selinexor (NSC780203), nedisertib (M3814, NSC802822), bortezomib (NSC756655), venetoclax (NSC766270), doxorubicin (NSC123127), elimusertib (BAY189344, NSC800525), ceralasertib (AZD6738, NSC777638), TAK-243 (NSC785004), alisertib (NSC759677), etoposide (NSC141540), topotecan (NSC609699), eribulin (NSC707389), gemcitabine (NSC613327), carboplatin (NSC241240), cisplatin (NSC119875), and SN-38 (NSC673596) were obtained from the National Cancer Institute (NCI) Developmental Therapeutics Program Chemical Repository (32). The FDA-approved anticancer drug set is available from the Developmental Therapeutics Program at https://dtp.cancer.gov/organization/dscb/obtaining/available plates.htm. […] The stock solutions were prepared in dimethyl sulfoxide (DMSO, Sigma-Aldrich, St. Louis, MO, cat. D2650), except for the platinum compounds which were prepared in saline (Quality Biological, Gaithersburg, MD, cat. 114-055-101), at 800-fold the tested concentration and stored at -70 degrees C prior to their use. All drugs and investigational agents were tested over a range starting from a high concentration at or near the clinical Cmax and decreasing in half-log increments. If the clinical Cmax for an agent had not been determined, the highest concentration tested was 10 microM (Table 1).
Cell Culture. All cells were maintained in an incubator at 37 degrees C and 5% CO2 with 95% humidity. The PDC lines were cultured according to standard operating procedures established by the NCI PDMR (https://pdmr.cancer.gov). Briefly, all PDCs were thawed and cultured in Matrigel-coated flasks prepared with a working solution of 1X Ham's F-12 nutrient mix, without supplementation (Invitrogen, Waltham, MA, cat. 11765054), 100 U/mL penicillin-streptomycin (Invitrogen, cat. 15140122), and 2.5% Matrigel (Corning Inc., Corning, NY, cat. 354248) for the first three passages. All PDCs were cultured in complete DMEM/F-12 media containing advanced DMEM/F-12 (Invitrogen, cat. 12634028), 4.9% defined fetal bovine serum, heat inactivated (HyClone Laboratories Inc., Logan, UT, cat. SH30070.03HI), 389 ng/mL hydrocortisone (Sigma-Aldrich, cat. H4001), 9.7 ng/mL human EGF recombinant protein (Invitrogen, cat. PHG0313), 23.4 microg/mL adenine (Sigma-Aldrich, cat. A2786), 97.3 U/mL penicillin-streptomycin (Invitrogen, cat. 15140122), 1.9 mM L-glutamine (Invitrogen, cat. 25030081), and 9.7 microM Y-27632 dihydrochloride (Tocris Bioscience, Bristol, United Kingdom, cat. 1254). […]

SMILES	viability, T/C (compound alone 1 µM)	viability, T/C (compound alone 0.1 µM)	viability, T/C (compound alone 0.316 µM)	viability, T/C (compound alone 10 µM)
Cc1ccccc1N=Nc1ccc(NC(=O)c2ccnn2C)c(C)c1	99.4, 101 (2×), 83.9, 89.8, 88.8, 95.1, 96.9, 94.2, 96.4, 98.2, 97.2, 87.9, 95.8, 92.8, 95.2, 109, 94.5, 88.5, 94%			
CC(CO)NC(=O)c1cc(-c2ccc(Cl)cc2)nn(-c2cnn(C)c2)c1=O (stereo not given)		104 (2×), 101 (3×), 100, 98.8, 103, 102, 93.7, 99.8, 99.4, 98.4, 105 (2×), 98, 99.2, 119, 106, 108%	91.2, 94.9, 105 (2×), 107, 112, 97.3, 104 (2×), 102, 111, 97.2, 119, 106, 96.5, 109, 94.4, 103, 108, 110% (2×)	103 (2×), 94.3, 99.7, 104 (4×), 112 (2×), 105, 113, 106, 110, 115, 109, 114 (2×), 123%
Cc1cncc(-c2nc(NCCc3c[nH]c4ccccc34)c3ncn(C(C)C)c3n2)c1				94.1, 98.9, 93.9, 77.2, 84.7, 80.3, 75.1, 76.3, 78.2, 79, 104, 86.5, 99.4, 87.6 (2×), 91.3, 87.1, 80.4, 97, 86.6%
